According to PubChem BioAssay AID686979 (National Center for Advancing Translational Sciences (NCATS), 2013):
In all, about 420,000 compounds went through this assay and about 50,000 (12%) were called active. Inconclusive results, whose numbers are uncertain, are shown with a selection of clear calls. Calls come from the whole dose curve; as a rule, active = well fitted inhibition curve with a large enough effect; inconclusive = small, poorly fitted or top-dose-only effect; inactive = flat fitted curve, though single readings scatter. No potency is given beside an inconclusive call; the fits are too rough.

Assay: qHTS for Inhibitors of human tyrosyl-DNA phosphodiesterase 1 (TDP1): qHTS in cells in presence of CPT; note: nearly all actives have a fitted effect of over 55% in size
Conditions: chicken DT40 Tdp1-/-;hTDP1 cells + 20 nM CPT, ATP luminescence, 48 h; activity change, negative = growth inhibition: at 46.2 µM (top of the series) unless noted
Method in brief: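 Cell growth measured by CellTiter-Glo luminescence after a minimum 48 h, 37 C compound exposure with 20 nM CPT in Tdp1-knockout DT40 cells stably expressing hTDP1, seeded 400/well; qHTS titration format.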
% is set by controls: 0 for no effect and ±100 for the full control effect; potency is the fitted concentration of half-maximal effect; tags give direction and shape of the fitted curve.

SMILES	Potency	activity change, negative = growth inhibition
NC(=O)c1cccn1Cc1cccc(Cl)c1	active: 20.6 µM	
COCCOC(=O)C1=C(C)N=C2SCCC(=O)N2C1c1cccc(Br)c1 (stereo not given)		inactive: -0.689%
OCC[C@H]1C[C@@H](O)[C@H](O)[C@]2(OCc3ccccc32)O1		inactive: 8.09%
CS(=O)(=O)N1CCc2cc(C(=O)N3CCN(c4ccccc4)CC3)ccc21	inconclusive [inhibitor, partial curve]	inconclusive: -30.4% [inhibitor]
Cc1ccc(C)c(NC(=O)C(c2ccccc2)N2CCOCC2)c1 (stereo not given)		inactive: 3.88%
CN(CC(=O)Nc1ccc(Cl)c(C(F)(F)F)c1)C(=O)C1CCN(C(=O)c2ccc(Cl)cc2)CC1	inconclusive [inhibitor, single point]	
CC(=O)Nc1cccc(/C(C)=N/NS(=O)(=O)c2ccc(C)cc2)c1		inactive: 14.3%
COc1ccc(S(=O)(=O)N2CC(=O)Nc3ccccc32)cc1		inactive: 3.3%
COc1cc(C2C(C#N)=C(N)OC3=C2C(=O)CCC3)cc(OC)c1OC(=O)N1CCOCC1 (stereo not given)		inactive: -4.36%
O=C(CSCc1ccc(Cl)cc1)Nc1ccccc1O	inconclusive [inhibitor, single point]	
O=C(c1ccc(CS(=O)Cc2ccc(Cl)cc2)o1)N1CCN(C2CCCCC2)CC1 (stereo not given)		inactive: -7.03%
Cn1c(/C=C/c2ccc([N+](=O)[O-])o2)nc2ccccc2c1=O	active: 0.259 µM	
O=C(NC1CCN(C(=S)NCc2ccco2)CC1)NC12CC3CC(CC(C3)C1)C2		inconclusive: -40.2% [inhibitor]
COc1ccc(NC(=O)N2CCCC2C(=O)Nc2ccc(C)cc2C)cc1 (stereo not given)		inactive: -1.69%
O=S(=O)(c1ccc(Cl)cc1)N1CCCN(c2ccc(C(F)(F)F)cn2)CC1	inconclusive [inhibitor, single point]	
O=C(/C=C/c1ccccc1Cl)c1ccc[nH]1	inconclusive [inhibitor, single point]	
O=C(CC(c1ccccc1)c1cc(Br)ccc1O)N1CCCCC1 (stereo not given)	inconclusive [inhibitor, single point]	
COc1ccc(-c2oc(=O)c3cc(OC)c(OC)cc3c2-c2ccc3c(c2)OCO3)cc1	active: 16.4 µM	
CC(C(=O)Nc1ccc(N2CCOCC2)cc1)N1C(=O)NC(C)(C)C1=O (stereo not given)		inactive: -2.11%
COc1cccc(NC(=O)CN2CCN(CC(=O)Nc3ccccc3Cl)CC2)c1	inconclusive [inhibitor, single point]	
CC(O)c1c(-c2ccccc2)nn(C)c1Cl (stereo not given)		inactive: -1.75%
COc1ccccc1C(=O)N/C(=C/c1cccc([N+](=O)[O-])c1)C(=O)Nc1cccc(C(=O)O)c1	active: 20.6 µM	
COc1cccc(OC)c1C(=O)NCCSC1CCCCC1	active: 13 µM	
O=[N+]([O-])c1c(Nc2ccccc2O)ccc2nonc12		inactive: -12.1%
Cc1ccc(S(=O)(=O)N2C[C@H]3[C@H]4C(=O)N(c5ccccc5)C(=O)[C@H]4C[C@H](OC(=O)NC4CC4)[C@@]3(O)C2)cc1		inactive: -2.72%

SMILES	Potency	activity change, negative = growth inhibition
CC(C(=O)NN=C(c1ccccc1)c1ccccc1)N1CCCC1 (stereo not given)	inconclusive [inhibitor, single point]	
COc1ccccc1NC(=O)NCc1cccn1Cc1ccccc1	inconclusive [inhibitor, single point]	
CCCC1=Nc2cc(C(=O)NCCc3ccccc3)ccc2Sc2ccc(C)cc21	active: 4.61 µM	
COc1cccc(C(c2nnnn2C(C)(C)C)N2CCN(C3CCCCC3)CC2)c1OC (stereo not given)		inactive: -21.5%
CN(Cc1ccccc1)C(=O)c1cccc(NC(=O)Cc2ccc(NC(=O)C3CCN(C(=O)C4CCC4)CC3)cc2)c1	inconclusive [inhibitor, partial curve]	
Cc1cccc(NC(=O)c2cc(-c3ccco3)nc3ccccc23)n1	active: 20.6 µM	
CC(C)Oc1ccc(CNC(=O)CC(c2ccccc2)c2cc(Cl)ccc2O)cc1 (stereo not given)	inconclusive [inhibitor, single point]	
CCC(CC)C(=O)N(C)c1c(C)nc2c(OCC=C(C)C)cccn12	active: 13 µM	
Cc1cc(C)c(OCC(=O)Nc2ccc(S(=O)(=O)N3CCOCC3)cc2)c(C)c1	inconclusive [inhibitor, single point]	
CC(=O)Nc1nc2c(F)cccc2s1		inactive: 35.6%
O=C(O)Cc1ccc(NC(=O)Nc2ccc3c(c2)OCO3)cc1		inactive: -22.7%
O=[N+]([O-])c1ccc(CN2CCOCCOCCOCC2)cc1		inactive: -7.59%
CCCCN(CC)C(=O)c1cc2cc3ccc(OC)cc3nc2o1	inconclusive [inhibitor, single point]	
CCOc1ccc(NC(=O)/C=C\C(=O)N(c2ccc(C(C)C)cc2)C(C(=O)NCc2ccco2)c2ccc(F)cc2)cc1 (stereo not given)	active: 5.17 µM	
COc1ccc(-c2cnn3c(C)cc(C)nc23)cc1OC	inconclusive [inhibitor, single point]	
CNc1nc(Nc2ccccc2)nc(OCC(F)(F)F)n1		inactive: -16.4%
CC(C)(CN1CCCN(CC(C)(C)C(=O)O)C1=O)C(=O)O		inactive: -9.76%
CCOc1ccc(-c2nc(SCC(=O)NC3CCCC3)c(-c3ccccc3)[nH]2)cc1OC	inconclusive [inhibitor, single point]	
CNCC(=O)c1c[nH]c2ccccc12	inconclusive [inhibitor, single point]	
CCOc1ccc(CCNC(=O)c2[nH]c(C)c(C(C)=O)c2C)cc1OCC	inconclusive [inhibitor, single point]	
COC(=O)CN(C(=S)Nc1ccc(F)cc1)C1CC(=O)N(c2ccc(OC)cc2)C1=O (stereo not given)		inconclusive: -31.3% [inhibitor]
COc1cccc(-c2nc(SCC(=O)NC3CCCC3)c(-c3ccccc3)[nH]2)c1	inconclusive [inhibitor, single point]	
COc1ccc(OCCSc2ncnc3nc[nH]c23)cc1	inconclusive [inhibitor, partial curve]	
Cn1c2ccccc2c(=O)c2c(=O)n(C3CCCCCC3)c(C3CCCCC3)nc21	active: 14.6 µM	
CCOC(=O)C1=C(C)OC2(O)c3ccccc3C(=O)C12O (stereo not given)	inconclusive [inhibitor, single point]	

SMILES	Potency	activity change, negative = growth inhibition
CCc1nc(C)c(-c2ccccc2)c(=O)[nH]1		inactive: -9.03%
O=C(Nc1cccc(S(=O)(=O)N2CCOCC2)c1)c1cn(-c2ccccc2)nc1-c1ccc(F)cc1	inconclusive [inhibitor, single point]	
Cc1ccc(-c2noc(CCCC(=O)NCc3ccco3)n2)cc1	inconclusive [inhibitor, single point]	
CCCOc1ccc(C(=O)Nc2ccc(Cl)c(-c3nc4ncccc4o3)c2)cc1	active: 23.1 µM	
Cc1cc(C)cc(N=C2NC(=O)/C(=C/c3cccs3)S2)c1	inconclusive [inhibitor, single point]	
CCOc1ccc(NS(=O)(=O)c2ccc(C(=O)NC3CCC(O)CC3)cc2)cc1 (stereo not given)		inactive: -26.1%
CC(C)CNC(=O)C1(C)CCCCCN1Cc1ccccc1-c1ccccc1 (stereo not given)	inconclusive [inhibitor, single point]	
CCOc1ccc(-c2nc(N)nc(C)c2-c2ccc(Cl)cc2)c(O)c1	inconclusive [inhibitor, partial curve]	
CC(=O)[C@@]1(O)CC[C@H]2[C@@H]3C=C(Cl)C4=CC(=O)CC[C@]4(C)[C@H]3CC[C@@]21C		inconclusive: -14.4% [inhibitor]
COc1ccc(NC(=O)CSc2nnc(CN3CCOCC3)n2-c2ccccc2)cc1Cl	inconclusive [inhibitor, full curve, poor fit]	
COC(=O)CCCC1=CC2=C(c3ccccc3)C(=O)C(C)(OC(=O)C3CCCC3)C(=O)C2=CN1Cc1ccc(OC)cc1 (stereo not given)	active: 23.1 µM	
O=C(NC(=S)NC1CCS(=O)(=O)C1)c1ccccc1 (stereo not given)		inactive: 1.55%
COc1ccc(C)cc1-n1nnnc1SCc1cn2ccsc2n1	inconclusive [inhibitor, partial curve]	
Cc1cc(Nc2ccccc2)c2c([N+](=O)[O-])c(C)cc(C)c2n1	inconclusive [inhibitor, single point]	
Cc1ccc2c(CN3CCCCC3)cc(=O)oc2c1C		inactive: 3.7%
CSc1ccc(CCNC(=O)CN2C(=O)c3cccnc3Oc3ccc(Cl)cc32)cc1	inconclusive [inhibitor, single point]	
Cc1ccccc1NC(=O)C(=O)NCCc1c[nH]c2ccccc12		inactive: -2.75%
CCOc1ccc(CCNC(=O)CCc2c(C)nc3cc(-c4ccccc4OC)nn3c2C)cc1	inconclusive [inhibitor, single point]	
CC(C)c1ccc(CC(=O)N2CCC2(C)C(=O)NS(=O)(=O)c2cccc(OC(F)F)c2)cc1 (stereo not given)		inactive: -13.8%
COc1ccccc1N1CCN(CC(O)COc2c(OC)cccc2OC)CC1 (stereo not given)	active: 16.4 µM	
O=C(O)CCn1nnc(-c2ccccc2)n1	inconclusive [inhibitor, single point]	
COc1ccc(-c2cc(C(=O)NCC3CCCCC3)[nH]n2)c(C)c1	inconclusive [inhibitor, single point]	
CCOC(=O)Cc1csc(NC(=O)Cc2ccc(Cl)cc2)n1	inconclusive [inhibitor, single point]	
CSc1nc2c(c(=O)[nH]c(=O)n2C)n1Cc1ccc(Cl)cc1	inconclusive [inhibitor, single point]	
